Test results: PubChem BioAssay (NCI)
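Tested at 5 concentrations; 48 h exposure; 96-well plates; endpoints linearly interpolated, else capped at highest concentration. The concentration for full growth arrest is given as TGI.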 The source holds more than one record for some entries. The list is limited to them. The source may hold further records. A record mostly stands for its own series of concentrations, which the source does not state; some values may only mark the edge of a range.

Legend:
Test in all cases: growth of human tumour cells (NCI), 48 h
A498 renal = system: A498 renal
COLO 205 colon = system: COLO 205 colon
LXFL 529 NSCLC = system: LXFL 529 NSCLC
M14 melanoma = system: M14 melanoma
RXF 393 renal = system: RXF 393 renal
SK-MEL-2 melanoma = system: SK-MEL-2 melanoma
XF 498 CNS = system: XF 498 CNS
IGROV1 ovarian = system: IGROV1 ovarian
MOLT-4 leukemia = system: MOLT-4 leukemia
SR leukemia = system: SR leukemia
U251 CNS = system: U251 CNS

SMILES | TGI (A498 renal) | TGI (COLO 205 colon) | TGI (LXFL 529 NSCLC) | TGI (M14 melanoma) | TGI (RXF 393 renal) | TGI (SK-MEL-2 melanoma) | TGI (XF 498 CNS) | TGI (IGROV1 ovarian) | TGI (MOLT-4 leukemia) | TGI (SR leukemia) | TGI (U251 CNS)
COc1cc(C(=O)N[C@H]2CCc3cc(OC)c(OC)c(OC)c3-c3ccc(SC)c(=O)cc32)cc(OC)c1OC | 756 nM and 34.7 nM | 25 µM and 92.4 nM | 25 µM and 57.2 nM | 44.5 nM and > 100 µM | 22 nM and 26.4 µM | 202 nM and 34.3 µM | 25 µM and 82.2 nM | – | – | – | –
CCCCCCNCCCNc1c2cc(OC)ccc2nc2cccc([N+](=O)[O-])c12 | – | – | – | – | – | – | – | 44.1 nM and 722 nM | 81.1 µM and 488 nM | 75.6 nM and 12 µM | 1.47 µM and 140 nM
